Source: article PMC10653391
Where a chain is given by its changes, count along the chain named. Results are given in words; binding and its absence hold for the method and conditions named. In cells and extracts the contact can be indirect. Some binding calls cover weakened binding; strength is not graded here. Tags and fused reporters may be left off the sequences shown.

Protein sequences, listed by entry. Tags and fused reporters are not part of them.
UniProt Q52LJ0: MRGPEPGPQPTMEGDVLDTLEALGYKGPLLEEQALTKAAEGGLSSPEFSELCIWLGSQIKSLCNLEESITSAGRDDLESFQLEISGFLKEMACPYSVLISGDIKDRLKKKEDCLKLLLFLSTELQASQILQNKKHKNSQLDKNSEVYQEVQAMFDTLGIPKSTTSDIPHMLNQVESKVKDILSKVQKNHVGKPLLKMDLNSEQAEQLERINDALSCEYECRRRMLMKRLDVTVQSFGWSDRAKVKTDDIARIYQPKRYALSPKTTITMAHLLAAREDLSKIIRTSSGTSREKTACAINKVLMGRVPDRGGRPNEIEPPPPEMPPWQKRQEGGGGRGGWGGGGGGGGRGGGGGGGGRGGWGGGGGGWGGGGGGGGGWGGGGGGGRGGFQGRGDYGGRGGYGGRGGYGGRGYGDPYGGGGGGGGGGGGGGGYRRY

T1: FLAG-TRX CxxS (human) (UniProt P10599)
T1 sequence: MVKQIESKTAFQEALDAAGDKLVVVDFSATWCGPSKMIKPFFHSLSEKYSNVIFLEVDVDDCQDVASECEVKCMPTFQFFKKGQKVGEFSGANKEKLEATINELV

T2: FLAG-TRX CxxC (human) (UniProt P10599)
T2 sequence: T1 sequence with S35C

T3: FLAG-TRX SxxS (human) (UniProt P10599)
T3 sequence: T1 sequence with C32S

B1: RTCB (RNA-splicing ligase RtcB homolog) (enzyme, UniProt Q9Y3I0 1-505)
chain: MSRSYNDELQFLEKINKNCWRIKKGFVPNMQVEGVFYVNDALEKLMFEELRNACRGGGVGGFLPAMKQIGNVAALPGIVHRSIGLPDVHSGYGFAIGNMAAFDMNDPEAVVSPGGVGFDINCGVRLLRTNLDESDVQPVKEQLAQAMFDHIPVGVGSKGVIPMNAKDLEEALEMGVDWSLREGYAWAEDKEHCEEYGRMLQADPNKVSARAKKRGLPQLGTLGAGNHYAEIQVVDEIFNEYAAKKMGIDHKGQVCVMIHSGSRGLGHQVATDALVAMEKAMKRDKIIVNDRQLACARIASPEGQDYLKGMAAAGNYAWVNRSSMTFLTRQAFAKVFNTTPDDLDLHVIYDVSHNIAKVEQHVVDGKERTLLVHRKGSTRAFPPHHPLIAVDYQLTGQPVLIGGTMGTCSYVLTGTEQGMTETFGTTCHGAGRALSRAKSRRNLDFQDVLDKLADMGIAIRVASPKLVMEEAPESYKNVTDVVNTCHDAGISKKAIKLRPIAVIKG
B2: Peroxiredoxin 1 (PRDX1) (enzyme, UniProt Q06830 1-199)
chain: MSSGNAKIGHPAPNFKATAVMPDGQFKDISLSDYKGKYVVFFFYPLDFTFVCPTEIIAFSDRAEEFKKLNCQVIGASVDSHFCHLAWVNTPKKQGGLGPMNIPLVSDPKRTIAQDYGVLKADEGISFRGLFIIDDKGILRQITVNDLPVGRSVDETLRLVQAFQFTDKHGEVCPAGWKPGSDTIKPDVQKSKEYFSKQK
B3: DDX1 (protein, UniProt Q92499 1-740)
chain: MAAFSEMGVMPEIAQAVEEMDWLLPTDIQAESIPLILGGGDVLMAAETGSGKTGAFSIPVIQIVYETLKDQQEGKKGKTTIKTGASVLNKWQMNPYDRGSAFAIGSDGLCCQSREVKEWHGCRATKGLMKGKHYYEVSCHDQGLCRVGWSTMQASLDLGTDKFGFGFGGTGKKSHNKQFDNYGEEFTMHDTIGCYLDIDKGHVKFSKNGKDLGLAFEIPPHMKNQALFPACVLKNAELKFNFGEEEFKFPPKDGFVALSKAPDGYIVKSQHSGNAQVTQTKFLPNAPKALIVEPSRELAEQTLNNIKQFKKYIDNPKLRELLIIGGVAARDQLSVLENGVDIVVGTPGRLDDLVSTGKLNLSQVRFLVLDEADGLLSQGYSDFINRMHNQIPQVTSDGKRLQVIVCSATLHSFDVKKLSEKIMHFPTWVDLKGEDSVPDTVHHVVVPVNPKTDRLWERLGKSHIRTDDVHAKDNTRPGANSPEMWSEAIKILKGEYAVRAIKEHKMDQAIIFCRTKIDCDNLEQYFIQQGGGPDKKGHQFSCVCLHGDRKPHERKQNLERFKKGDVRFLICTDVAARGIDIHGVPYVINVTLPDEKQNYVHRIGRVGRAERMGLAISLVATEKEKVWYHVCSSRGKGCYNTRLKEDGGCTIWYNEMQLLSEIEEHLNCTISQVEPDIKVPVDEFDGKVTYGQKRAAGGGSYKGHVDILAPTVQELAALEKEAQTSFLHLGYLPNQLFRTF
B4: CGI-99 (RTRAF/hCLE) (protein, UniProt Q9Y224 1-244)
chain: MFRRKLTALDYHNPAGFNCKDETEFRNFIVWLEDQKIRHYKIEDRGNLRNIHSSDWPKFFEKYLRDVNCPFKIQDRQEAIDWLLGLAVRLEYGDNAEKYKDLVPDNSKTADNATKNAEPLINLDVNNPDFKAGVMALANLLQIQRHDDYLVMLKAIRILVQERLTQDAVAKANQTKEGLPVALDKHILGFDTGDAVLNEAAQILRLLHIEELRELQTKINEAIVAVQAIIADPKTDHRLGKVGR

Key:
Assay in all cases: co-IP; kinetic trapping: FLAG-TRX variants precipitated on M2 FLAG-beads from lysates of HeLa RIEP shTRX cells (endogenous TRX silenced with 2 µg/mL Dox for 3 d); cells left untreated or treated with H2O2 for 3 min, menadione for 15 min, or Tm or Tg for 4 or 8 h; 20 mM NEM; buffer 1 (25 mM TRIS pH 7.4, 5 mM MgSO4, 150 mM NaCl, 0.3% Triton X-100); washes up to 500 mM NaCl; elution with FLAG-peptide in nonreducing conditions; western blot of eluates; partners held by an intermediate disulfide bond
FLAG-TRX CxxS (human) = target: T1, FLAG-TRX CxxS (human)
FLAG-TRX CxxC (human) = target: T2, FLAG-TRX CxxC (human)
FLAG-TRX SxxS (human) = target: T3, FLAG-TRX SxxS (human)

Molecule	binding (FLAG-TRX CxxS (human))	binding (FLAG-TRX CxxC (human))	binding (FLAG-TRX SxxS (human))
FAM98B (from UniProt Q52LJ0 1-433)	no binding	–	–
B1	binds	no binding	no binding
B2	binds	–	–
B3	no binding	–	–
B4	no binding	–	–
